Assay results reported in patent US20180161402A1 (CSL BEHRING LENGNAU, published 2018).

Target: T1, rVIII-SingleChain (recombinant single chain Factor VIII) (Homo sapiens (Human), UniProt P00451 20-2351)
T1 construct: also called rVIII-SC; FVIII
T1 sequence: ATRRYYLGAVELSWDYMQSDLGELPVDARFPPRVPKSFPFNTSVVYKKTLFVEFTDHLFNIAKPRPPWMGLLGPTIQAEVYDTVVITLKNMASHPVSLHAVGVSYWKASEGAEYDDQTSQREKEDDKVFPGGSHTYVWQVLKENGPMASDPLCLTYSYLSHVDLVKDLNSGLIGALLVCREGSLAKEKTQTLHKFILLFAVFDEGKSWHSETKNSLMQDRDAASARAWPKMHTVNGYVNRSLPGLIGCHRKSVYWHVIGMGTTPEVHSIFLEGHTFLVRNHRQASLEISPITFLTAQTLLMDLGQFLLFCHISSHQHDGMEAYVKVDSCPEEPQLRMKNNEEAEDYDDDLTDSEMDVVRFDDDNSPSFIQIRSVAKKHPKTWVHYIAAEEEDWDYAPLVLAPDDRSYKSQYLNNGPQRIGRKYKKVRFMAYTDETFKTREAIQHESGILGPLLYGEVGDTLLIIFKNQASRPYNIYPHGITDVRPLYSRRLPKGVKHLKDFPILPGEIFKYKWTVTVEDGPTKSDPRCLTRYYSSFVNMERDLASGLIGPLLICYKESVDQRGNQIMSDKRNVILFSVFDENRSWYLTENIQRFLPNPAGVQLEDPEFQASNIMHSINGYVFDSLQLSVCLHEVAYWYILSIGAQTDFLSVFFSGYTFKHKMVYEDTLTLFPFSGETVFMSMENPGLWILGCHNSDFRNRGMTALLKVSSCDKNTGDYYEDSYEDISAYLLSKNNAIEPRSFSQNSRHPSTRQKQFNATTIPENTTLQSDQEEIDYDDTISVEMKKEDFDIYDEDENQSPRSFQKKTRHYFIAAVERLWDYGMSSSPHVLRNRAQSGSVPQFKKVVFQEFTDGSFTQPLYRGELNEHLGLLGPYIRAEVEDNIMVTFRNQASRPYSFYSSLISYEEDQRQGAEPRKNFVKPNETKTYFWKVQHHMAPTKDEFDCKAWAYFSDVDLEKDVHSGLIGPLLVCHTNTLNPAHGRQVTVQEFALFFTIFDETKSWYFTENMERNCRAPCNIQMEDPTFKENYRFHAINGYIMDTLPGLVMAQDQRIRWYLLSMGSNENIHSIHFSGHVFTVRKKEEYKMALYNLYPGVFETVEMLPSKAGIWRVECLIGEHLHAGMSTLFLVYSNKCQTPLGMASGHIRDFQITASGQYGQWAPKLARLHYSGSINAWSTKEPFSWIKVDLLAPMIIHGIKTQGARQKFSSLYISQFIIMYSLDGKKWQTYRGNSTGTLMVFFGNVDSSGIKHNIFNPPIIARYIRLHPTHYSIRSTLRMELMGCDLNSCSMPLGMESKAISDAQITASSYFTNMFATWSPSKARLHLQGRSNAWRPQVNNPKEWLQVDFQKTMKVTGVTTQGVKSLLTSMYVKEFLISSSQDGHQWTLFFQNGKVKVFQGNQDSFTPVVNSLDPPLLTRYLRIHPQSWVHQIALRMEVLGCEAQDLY
Assay: SPR (Biacore T200)
Description: Dimeric and monomeric D′D3-FP proteins, respectively, were immobilized to the covalently coupled anti-albumin antibody by a flow of the D′D3-FP proteins (5 μg/mL) over the chip for 3 min (flow rate of 10 μL/min).
To create binding curves for FVIII, each D′D3-FP protein preparation was diluted in running buffer (HBS-P+: 0.1 M HEPES, 1.5 M NaCl and 0.5% v/v Surfactant P20, pH 7.4; product code BR100671, GE Healthcare) to concentrations of 0.25 nM, 0.5 nM, 1 nM, 3 nM and 4 nM. By performing a single cycle kinetic, samples with ascending concentrations of each dilution were flown over the chip for 2 min (flow rate 30 μL/min.), followed by a dissociation time of 10 min. with running buffer HBS-P+. All measurements were performed twice. The temperature for the measuring procedure was adjusted to +25° C.
Binding parameters were calculated using BiaEvaluation Software. The curve fitting methods were based on Langmuir equations. The input data for calculations were the molar mass of the analyte FVIII (rVIII-SingleChain), other parameters like max. RU and slopes were automatically extracted out of the fitted association and dissociation curves. The outputs of BiaEvaluation Software are the association rate constants and the dissociation rate constants, from which the affinity constants were calculated.

- fold slower dissociation rate constant than to the D′D3-FP monomer: 3 fold
B1: D′D3-FP dimer (VWF fragment (1-1242) albumin fusion, dimeric preparation) (other)
chain: SLSCRPPMVKLVCPADNLRAEGLECTKTCQNYDLECMSMGCVSGCLCPPGMVRHENRCVALERCPCFHQGKEYAPGETVKIGCNTCVCRDRKWNCTDHVCDATCSTIGMAHYLTFDGLKYLFPGECQYVLVQDYCGSNPGTFRILVGNKGCSHPSVKCKKRVTILVEGGEIELFDGEVNVKRPMKDETHFEVVESGRYIILLLGKALSVVWDRHLSISVVLKQTYQEKVCGLCGNFDGIQNNDLTSSNLQVEEDPVDFGNSWKVSSQCADTRKVPLDSSPATCHNNIMKQTMVDSSCRILTSDVFQDCNKLVDPEPYLDVCIYDTCSCESIGDCACFCDTIAAYAHVCAQHGKVVTWRTATLCPQSCEERNLRENGYECEWRYNSCAPACQVTCQHPEPLACPVQCVEGCHAHCPPGKILDELLQTCVDPEDCPVCEVAGRRFASGKKVTLNPSDPEHCQICHCDVVNLTCEACQEPGGSSGGSGGSGGSGGSGGSGGSGGSGGSGGSGS[gap - about 600 residues]
notes: Dimer fraction isolated by size exclusion chromatography; Expressed in CHO K1 cells with PACE/furin, propeptide cleaved off; Captured on the chip through an anti-albumin antibody; also called dimeric D′D3-FP; D′D3 albumin fusion protein
